Measured values published in PubChem BioAssay AID686971 (National Center for Advancing Translational Sciences (NCATS), 2013).
About 7,500 (2.1%) of roughly 360,000 compounds were called active. Inconclusive results, whose numbers are uncertain, are shown with a selection of clear calls. Calls follow the shape of the dose curve; as a rule, active = well fitted cell-killing curve with a large enough effect; inconclusive = small, poorly fitted or top-dose-only effect, or effect the other way, or another doubt; inactive = no such curve, though single readings can be large or run the other way. Potencies of inconclusive entries are left out as doubtful fits.

experiment: qHTS for induction of synthetic lethality in tumor cells producing 2HG: qHTS for the HT-1080-IDH1KD cell line; details: HT-1080 IDH1 knockdown viability, ATP luminescence, 48 h; activity, negative = toxicity: at 46.1 µM (top of the series) unless noted;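 as to activity, negative = toxicity: 0% = DMSO wells and -100% = cell-free medium wells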
Summary of the method: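 Luminescent ATP read-out (CellTiter-Glo, 10 min at room temperature) after 48 h compound exposure at 37 °C gave viability of IDH1-knockdown HT-1080 cells. Activity was normalised to DMSO and cell-free wells, then fitted as concentration-response curves.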
Potency is read from the fitted curve at half-maximal effect; tags tell the direction and shape of the fitted curve.

SMILES	activity, negative = toxicity	Potency
CCOc1ccc(NS(=O)(=O)c2cc(OC)ccc2OC)cc1	inconclusive: 33.7%	
Cc1ccc(/C=C2/SC(=S)N(CCCC(=O)Nc3ccc(O)cc3)C2=O)cc1		active: 20.6 µM
C=CCNc1nc(N)c(C(=O)Nc2cc(C)on2)s1	inconclusive: 32.4%	
COc1ccc(Cn2c(C)c(C)c(C#N)c2NC(=O)Nc2cccc(C)c2)cc1		inconclusive [cytotoxic, single point]
Cc1cccc(/C=C/c2onc(C)c2[N+](=O)[O-])n1		active: 6.51 µM
CCCCOc1c(Cl)cc(CNC(C)(C)CO)cc1OCC		inconclusive [cytotoxic, single point]
COc1cc(C2C3=C(COC3=O)OC(C)(C)Oc3cc4c(cc32)OCO4)cc(OC)c1OC (configuration not stated)		inconclusive [cytotoxic, full curve]
COc1ccc(CCNC(=O)CCCn2c(=O)c3cccn3c3cccnc32)c(OC)c1OC	inactive: -6.22%	
COc1ccccc1-c1nn2c(C(F)(F)F)nnc2s1	inactive: -5.54%	
CCOC(=O)NC(=S)Nc1ccc(C(C)(C)C)cc1		inconclusive [cytotoxic, single point]
CCOC(=O)c1ccc(-c2c(-c3ccccc3OC)sc3ccc(OC)cc23)cc1F	inactive: 0.613%	
COc1ccc2c(c1)[nH]c1c(N3CCSCC3)ncnc12		active: 14.6 µM
Cc1cc(NC(=O)COc2ccc3ccccc3c2Br)no1		inconclusive [cytotoxic, single point]
N#CCSc1ccc(-c2nc3ccccc3[nH]2)cn1		inconclusive [cytotoxic, single point]
OCc1ccc(O)c2ncccc12		inconclusive [cytotoxic, single point]
CCCc1nc2ccc(Cl)cn2c1Cc1ccccc1OC		inconclusive [cytotoxic, single point]
CC1(C)CC(=O)C(C=NCCC2=CCCCC2)=C(O)C1	inconclusive: 0.608% [cytotoxic]	
Cc1[nH][nH]c(=O)c1C(c1c(C)[nH][nH]c1=O)c1cn(Cc2cccc3ccccc23)c2ccccc12		inconclusive [cytotoxic, single point]
CC(C)(C)c1ccc(-c2cc(C(=O)NNC(=O)Nc3ccccc3)c3ccccc3n2)cc1		inconclusive [cytotoxic, single point]
O=S(=O)(Nc1ccc(F)cc1Cl)c1ccc(-c2cnc(C3CC3)o2)cc1		inconclusive [cytotoxic, full curve]
O=C(NCc1cccc(Br)c1)C1CC(c2ccccc2C(F)(F)F)=NO1 (configuration not stated)		inconclusive [cytotoxic, single point]
CN(C1=C(N2CCOCC2)C(=O)c2ccccc2C1=O)c1ccccc1	inactive: -28.3%	
COc1ccc(NC(=O)C2Cc3c(-c4cccc(NC(C)=O)c4)ccnc3O2)cc1 (configuration not stated)		inconclusive [cytotoxic, full curve]
COc1ccc2cc(-c3[nH]ncc3CN3CCCN(c4ccccc4)CC3)ccc2c1		inconclusive [cytotoxic, single point]

SMILES	activity, negative = toxicity	Potency
CCCc1nc2c(C)cc(Br)cn2c1Cc1cccc(F)c1		inconclusive [cytotoxic, single point]
CN(C)S(=O)(=O)c1ccc(Oc2ccc(S(=O)(=O)N(C)C)cc2)cc1		inconclusive [cytotoxic, single point]
CSc1ccccc1C(=O)NCc1ccc(C)cc1	inactive: 2.88%	
Cc1cc2c(cc1C)-n1nnnc1C(N1CCN(C(=O)OCc3ccccc3)CC1)C(=O)N2 (configuration not stated)		inconclusive [cytotoxic, full curve, poor fit]
C[C@H]1COC(=O)[C@@H](CC(=O)OC(C)(C)C)C/C=C\C[C@H](CC(=O)NCCO)C(=O)N1	inactive: 6.55%	
CNC(=O)Nc1ccc(Cn2cc(C(F)(F)F)ccc2=O)cc1		inconclusive [cytotoxic, partial curve]
O=c1c(C=NCc2cccnc2)c(C(F)(F)F)[nH]n1-c1nc2ccccc2s1		inconclusive [cytotoxic, partial curve]
COc1cc(CC(=O)O)ccc1O		inconclusive [cytotoxic, partial curve]
Cn1c(=O)c2c(nc(CN3CCN(c4ccccc4)CC3)n2CCCc2ccccc2)n(C)c1=O	inactive: -1.2%	
O=C(Nc1ccccc1C(=O)NCc1ccco1)Nc1cccc2ccccc12		inconclusive [cytotoxic, single point]
Cn1c(=O)c([N+](=O)[O-])c(NCc2ccc3c(c2)OCO3)c2ccccc21	inactive: 4.34%	
COc1cc(NC(=O)c2ccccc2NS(=O)(=O)c2ccc(Cl)s2)cc(OC)c1		inconclusive [cytotoxic, partial curve, poor fit]
Cc1cc2c(cc1C)C(c1cccc(F)c1)CC(=O)N2 (configuration not stated)	inactive: -22.2%	
Cc1c(C(=O)Nc2nonc2-c2ccc(F)cc2)oc2ccc(F)cc12		active: 20.6 µM
CC1C(=O)N(Cc2ccc([N+](=O)[O-])cc2)c2ccccc2N1C(=O)c1c(F)cccc1F (configuration not stated)	inactive: -28.6%	
COc1ccc(-c2cn3ccccc3n2)cc1OC		inconclusive [cytotoxic, partial curve]
CCN(CC)C(=O)[C@H]1CC(CC(=O)NC/C=C(\C)CCC=C(C)C)C(=O)N2CCc3c([nH]c4ccc(OC)cc34)[C@]12C (some centres not stated)		active: 16.4 µM
Cc1c(C(=O)N/N=C/c2ccc(-c3ccccc3[N+](=O)[O-])o2)sc(N)c1C#N		inconclusive [cytotoxic, single point]
CCCC(=O)NC(c1ccc(OC)cc1)c1ccc2cccnc2c1O (configuration not stated)		inconclusive [cytotoxic, partial curve, poor fit]
CC1(C(=O)NCc2ccccc2)Cc2c(-c3ccc(C(N)=O)cc3)ccnc2O1 (configuration not stated)		active: 1.46 µM
Cc1ccc(CCC(=O)Nc2ccc(Cl)cc2)o1		inconclusive [cytotoxic, partial curve]
COc1cccc(/C=N/NC(=O)NC23CC4CC(CC(C4)C2)C3)c1O		active: 18.4 µM
CC1(C)N=C(N)N=C(N)N1c1ccc(Oc2ccc(Cl)cc2)c(Cl)c1		active: 1.3 µM
O=C(NCC1CCCC(CNC(=O)Nc2ccc(Cl)cn2)C1)Nc1ccc(Cl)cn1 (configuration not stated)		inconclusive [cytotoxic, single point]

SMILES	activity, negative = toxicity	Potency
C=CC(C)(C)c1c2occc2c(O)c2ccc(=O)oc12		inconclusive [cytotoxic, single point]
CCOC(=O)C(C(=O)OCC)C(C(=O)OCC)N1CCOCC1 (configuration not stated)		inconclusive [cytotoxic, single point]
O=C(NCc1ccccc1)c1cc(C2CCCN(C(=O)CCc3ccccc3)C2)on1 (configuration not stated)	inactive: -0.797%	
Cn1c(=O)c2c(ncn2CC(COCc2ccc(Cl)cc2)OCc2ccc(Cl)cc2)n(C)c1=O (configuration not stated)		inconclusive [cytotoxic, single point]
COc1ccc(OCCSc2nc3ccccc3n2CC(=O)O)cc1		inconclusive [cytotoxic, single point]
CC#CCN(CC#CC)S(=O)(=O)c1ccc(-n2cnnn2)c(OC)c1	inactive: 2.02%	
CCCOc1cccc(-c2cc(-c3n[nH]c(=S)n3CC)c3ccccc3n2)c1		inconclusive [cytotoxic, single point]
COc1ccc(-c2nnc3ccc(SCC(=O)N4CCOCC4)nn23)cc1	inactive: -7.54%	
OCC[C@H]1NCc2cc(CO)cc(-c3ccccc3)c21	inactive: -1.39%	
O=C(Nc1nnc(-c2ccccc2Cl)o1)c1cccnc1		inconclusive [cytotoxic, single point]
N/C(Cc1ccc(Cl)c(Cl)c1)=N\OC(=O)c1cccs1		inconclusive [cytotoxic, single point]
CC(=O)Nc1ccc(NC(=O)C(C)OC(=O)C(C)SCC(=O)Nc2ccc(F)cc2)cc1 (configuration not stated)	inactive: -2.22%	
CCc1ccccc1NCC(=O)Nc1ccc(Cl)c(C(F)(F)F)c1		inconclusive [cytotoxic, single point]
CCOC(=O)Cn1c(=NC(=O)C(C)(C)C)sc2cc([N+](=O)[O-])ccc21		inconclusive [cytotoxic, partial curve]
COc1ccc(N2CCN(C(=O)COC(=O)CNC(=O)c3ccc(C)cc3)CC2)cc1	inactive: 11.5%	
Cc1cc(C)nc(SCCC(=O)Nc2ccc(F)cc2)n1		inconclusive [rising, single point]
COc1ccc(NC(=O)c2sc(=O)n(Cc3ccccc3C#N)c2C)cc1OC	inactive: -3.76%	
C[C@@H]1CN([C@H](C)CO)C(=O)c2cc(NC(=O)Cc3ccccc3)ccc2O[C@H]1CN(C)Cc1ccc(Oc2ccccc2)cc1		inconclusive [cytotoxic, single point]
COc1ccc(C(CNC(=O)COc2cccc(C(F)(F)F)c2)N2CCCC2)cc1 (configuration not stated)	inactive: -3.51%	
Cc1ccccc1C(=O)OC1OC(=O)C(Cl)=C1Nc1ccccc1 (configuration not stated)		inconclusive [cytotoxic, single point]
COc1cc(/C=C/C(=O)c2ccc3c(c2)OCO3)cc(Cl)c1O		active: 23.1 µM
CC(NC(c1ccccc1)c1ccccc1)C(=O)N1CCCc2ccccc21 (configuration not stated)	inactive: -16.4%	
Cc1nn2cc(-c3cccc(Cl)c3)cnc2c1Br		inconclusive [cytotoxic, full curve]
Cc1ccc(-c2ccc(=O)n(CC(=O)N3CCN(c4cccc(C)c4)C(C)C3)n2)cc1 (configuration not stated)	inactive: -20.4%	
